# PubChem BioAssay AID588591 (National Center for Advancing Translational Sciences (NCATS), 2011)
# The whole screen tested about 390,000 compounds, of which about 4,700 (1.2%) were called active. The shares of active, inactive and inconclusive entries below differ from those in the screen. Calls come from the whole dose curve; as a rule, active = well fitted inhibition curve with a large enough effect; inconclusive = small, poorly fitted or top-dose-only effect, or another doubt; inactive = no such curve, though single readings can be large or run the other way. A potency beside an inconclusive call is a rough fit, not a confirmed value.
# Target: DNA polymerase eta (Homo sapiens) (UniProt Q9Y253)
# UniProt Q9Y253, sequence (Q9Y253 whole entry, looked up): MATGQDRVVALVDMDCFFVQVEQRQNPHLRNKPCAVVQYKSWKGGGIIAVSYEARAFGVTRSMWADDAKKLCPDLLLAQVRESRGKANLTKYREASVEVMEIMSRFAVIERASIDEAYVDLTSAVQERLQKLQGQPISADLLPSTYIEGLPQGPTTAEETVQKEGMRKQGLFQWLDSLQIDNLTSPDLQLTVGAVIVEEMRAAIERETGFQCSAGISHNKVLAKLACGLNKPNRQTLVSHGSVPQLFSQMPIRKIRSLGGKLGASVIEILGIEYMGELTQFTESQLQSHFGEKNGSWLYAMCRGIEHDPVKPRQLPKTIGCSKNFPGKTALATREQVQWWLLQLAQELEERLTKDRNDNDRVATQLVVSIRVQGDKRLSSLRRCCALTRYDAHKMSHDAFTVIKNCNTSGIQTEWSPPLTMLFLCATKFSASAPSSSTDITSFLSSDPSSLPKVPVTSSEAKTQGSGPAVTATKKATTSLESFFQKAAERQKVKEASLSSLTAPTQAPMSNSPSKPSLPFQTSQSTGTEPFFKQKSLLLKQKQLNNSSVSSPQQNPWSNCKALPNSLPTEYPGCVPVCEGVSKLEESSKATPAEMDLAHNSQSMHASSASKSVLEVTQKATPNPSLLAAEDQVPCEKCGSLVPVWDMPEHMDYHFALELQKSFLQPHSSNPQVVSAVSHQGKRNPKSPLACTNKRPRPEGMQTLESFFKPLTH
# Experiment: qHTS for Inhibitors of Polymerase Eta
# Settings: recombinant Pol eta, fluorescent DNA replication assay; series mostly up to 114 µM
# Method in brief: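 Pol eta at 10 nM preincubated with compounds 15 min at room temperature; reaction started with fluorescent substrate (50 nM final) and read kinetically at 0 and 10 min.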
# Potency is the fitted concentration of half-maximal effect; tags give direction and shape of the fitted curve.
row,SMILES,Potency
1,CCCCOc1ccc(S(=O)(=O)Nc2cccc(-c3ccc(N4CCOCC4)nn3)c2)cc1,inactive
2,C=CCc1cccc2cc(C(=O)NCc3ccc(C(=O)OCC)o3)c(=O)oc12,"inconclusive: 15.8 µM [inhibitor, full curve, poor fit]"
3,Cc1ccc(NC2=CC(=O)C(=O)c3ccccc32)c(C)c1,inactive
4,CCc1ccc(C(=O)CN2C(=O)NC(C)(c3ccc(C)cc3)C2=O)cc1 (centres undefined),"inconclusive: 79.4 µM [inhibitor, partial curve, poor fit]"
5,CCOC(=O)c1cc(-c2ccc(C)cc2)n(CCC(=O)Nc2cc(Cl)ccc2C)c1C,"inconclusive: 50.1 µM [inhibitor, partial curve, poor fit]"
6,CC(=O)Oc1cc2c3c(c1)/C(=C1/SC(=S)NC1=O)C(=O)N3C(C)(C)C=C2C,active: 79.4 µM
7,COc1ccc(F)cc1CN1CCN(C(=O)c2ccc(S(=O)(=O)N3CCCCCC3)cc2)CC1,"inconclusive: 79.4 µM [inhibitor, partial curve, poor fit]"
8,CCN1CCN(Cc2ccc(NC(=O)c3ccc(C)c(NC(=O)N4CCNC4=O)c3)cc2C(F)(F)F)CC1,"inconclusive: 35.5 µM [inhibitor, partial curve, poor fit]"
9,O=C(COC(=O)c1cc([N+](=O)[O-])ccc1N1CCOCC1)Nc1ccc(Cl)cn1,"inconclusive: 39.8 µM [inhibitor, partial curve, poor fit]"
10,O=C(O)CN1C(=O)/C(=C\c2cccc(OCc3ccc(F)cc3)c2)SC1=S,"inconclusive: 89.1 µM [inhibitor, single point]"
11,Cn1c(SCC(=O)Nc2cccc(C(=O)O)c2)nnc1-c1cc2cc(Br)ccc2o1,"inconclusive: 22.4 µM [inhibitor, full curve]"
12,Cc1ccc(N2CC(O)=C(c3nc4ccccc4c(=O)[nH]3)C2=N)cc1C,"inconclusive: 17.8 µM [inhibitor, full curve, poor fit]"
13,CC(=O)Nc1cccc(C(=O)/C=C/c2ccco2)c1,"inconclusive: 20 µM [inhibitor, partial curve, poor fit]"
14,O=C(Nc1ccc2c3c(cccc13)CC2)c1ccco1,"inconclusive: 39.8 µM [inhibitor, single point]"
15,O=C(Nc1cccc(-n2cccn2)c1)C1CCCN(Cc2cccc(F)c2F)C1 (centres undefined),"inconclusive: 89.1 µM [inhibitor, partial curve, poor fit]"
16,CC1CCCC(NC(=O)COC(=O)c2ccc(Br)o2)C1C (centres undefined),inactive
17,O=C(O)c1cccc(NC(=S)N/N=C/c2ccccc2OCc2cccc(Br)c2)c1,active: 20 µM
18,O=C(COC(=O)c1ccc(Br)o1)Nc1ccc(N2CCOCC2)cc1,inactive
19,Cc1cc(C(=O)N2CCN(c3cc(Cl)ccc3C)CC2)c2c(C)nn(-c3ccccc3)c2n1,inactive
20,O=C1CCCCC1C(Nc1ccc(Cl)cc1)c1ccccc1 (centres undefined),"inconclusive: 39.8 µM [inhibitor, partial curve, poor fit]"

row,SMILES,Potency
1,CC#CCCCC(=O)Nc1ccccc1C(=O)O,"inconclusive: 22.4 µM [inhibitor, single point]"
2,O=C(O)CCn1c(C(=O)O)cc2sccc21,"inconclusive: 15.8 µM [inhibitor, full curve, poor fit]"
3,Cc1ccccc1SCC(=O)Nc1cc(C(F)(F)F)ccc1N1CCOCC1,inactive
4,COCCn1c(N)c(C(=O)NCC2CCCO2)c2nc3ccccc3nc21 (centres undefined),"inconclusive: 89.1 µM [inhibitor, single point]"
5,CCCCCCc1c(C)c2ccc(OCC(=O)N[C@@H](Cc3ccccc3)C(=O)O)cc2oc1=O,active: 35.5 µM
6,Cc1cccc(C)c1NC(=O)Cn1cc(S(=O)(=O)Cc2ccc(F)cc2)c2ccccc21,"inconclusive: 50.1 µM [inhibitor, partial curve]"
7,CC(=O)NCc1ccc(C(=O)CN2C(=O)NC3(CCCCC3C)C2=O)s1 (centres undefined),"inconclusive: 31.6 µM [inhibitor, partial curve, poor fit]"
8,Cc1cccc(-n2c(N)c(C(=O)N3CCN(C)CC3)sc2=S)c1,"inconclusive: 2.82 µM [inhibitor, full curve, poor fit]"
9,COc1ccc(C2(c3ccc(OC)cc3)NC(=O)N(CC(=O)Nc3ccc(OC)c(OC)c3)C2=O)cc1,"inconclusive: 79.4 µM [inhibitor, partial curve, poor fit]"
10,COc1ccc(S(=O)(=O)N(C)C[C@H]2Oc3ccc(NS(=O)(=O)c4cccs4)cc3CC(=O)N([C@H](C)CO)C[C@H]2C)cc1,"inconclusive: 100 µM [inhibitor, partial curve, poor fit]"
11,Cc1ccc(S(=O)(=O)N(CC(=O)NCCC2=CCCCC2)Cc2ccccc2F)cc1,"inconclusive: 79.4 µM [inhibitor, partial curve, poor fit]"
12,Cc1c(C(=O)O)sc2nc(SCC(=O)Nc3ccc(S(=O)(=O)NCCCC(=O)O)cc3)[nH]c(=O)c12,inactive
13,COc1ccc([C@H]2C[C@H](O)[C@@H](n3cc(-c4ccc(F)cc4)nn3)CN2CC2CCCCC2)cc1,"inconclusive: 89.1 µM [inhibitor, partial curve, poor fit]"
14,O=C(O)c1ccc2nc(C(F)(F)F)[nH]c2c1,"inconclusive: 17.8 µM [inhibitor, full curve, poor fit]"
15,Cc1cc(O)c(-c2n[nH]c3c2C(c2cccc(O)c2)N(Cc2cccnc2)C3=O)cc1Cl (centres undefined),"inconclusive: 20 µM [inhibitor, single point]"
16,CN(C(=O)CSc1nc2ccccc2[nH]1)c1ccc(F)cc1,inactive
17,COc1cc(OC)cc(C(C(=O)NC2CCCCC2)N(C(=O)c2ccno2)c2ccccc2)c1 (centres undefined),"inconclusive: 3.16 µM [inhibitor, partial curve, poor fit]"
18,Cc1ccccc1OCc1nnc(SC(C)C(=O)O)n1-c1ccccc1 (centres undefined),inactive
19,COC(=O)C(CCC(C(=O)OC)N1C(=O)c2ccccc2C1=O)N1C(=O)c2ccccc2C1=O (centres undefined),"inconclusive: 35.5 µM [inhibitor, partial curve, poor fit]"
